The source of these data is publication PMC5829230, “G-protein βγ subunits determine grain size through interaction with MADS-domain transcription factors in rice”.

Protein sequences, listed by entry. Tags and fused reporters are not part of them. Lines headed by an entry give the natural chain unless they say otherwise; changes in a name come on top.
UniProt Q10PZ9: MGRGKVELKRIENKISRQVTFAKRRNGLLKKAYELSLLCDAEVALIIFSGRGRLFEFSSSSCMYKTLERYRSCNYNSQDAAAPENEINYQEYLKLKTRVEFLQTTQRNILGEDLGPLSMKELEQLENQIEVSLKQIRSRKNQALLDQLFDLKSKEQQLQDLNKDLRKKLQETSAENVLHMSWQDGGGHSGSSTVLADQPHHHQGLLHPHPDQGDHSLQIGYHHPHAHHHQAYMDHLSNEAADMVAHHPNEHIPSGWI

For one test, the target named is T1, Flag-DEP1 (rice) (UniProt Q67UU9).
T1 sequence: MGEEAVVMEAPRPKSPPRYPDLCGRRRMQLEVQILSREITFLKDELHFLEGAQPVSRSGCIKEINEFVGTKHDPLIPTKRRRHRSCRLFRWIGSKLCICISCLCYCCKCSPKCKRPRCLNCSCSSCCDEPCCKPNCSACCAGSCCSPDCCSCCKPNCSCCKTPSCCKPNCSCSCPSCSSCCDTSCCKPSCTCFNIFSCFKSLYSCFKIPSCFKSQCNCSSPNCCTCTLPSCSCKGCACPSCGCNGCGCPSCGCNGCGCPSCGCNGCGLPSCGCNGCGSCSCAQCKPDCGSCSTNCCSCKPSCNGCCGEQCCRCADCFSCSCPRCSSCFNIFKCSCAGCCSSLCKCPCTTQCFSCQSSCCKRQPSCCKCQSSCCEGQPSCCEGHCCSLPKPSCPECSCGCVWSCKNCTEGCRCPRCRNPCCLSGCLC
Nature of the test: co-IP; Flag- and HA-tagged proteins in transfected A. thaliana protoplasts; lysate in 50 mM HEPES pH 7.5, 150 mM KCl, 1 mM EDTA, 0.5% Triton X-100, 1 mM DTT; Flag M2 Affinity Gel at 4 °C, eluted with 3x Flag peptide, blot with anti-HA.

The target in test [1] is T2, DEP1 (DENSE AND ERECT PANICLE1), rice G-protein γ subunit, in pGBKT7 (rice) (UniProt Q67UU9).
T2 sequence: T1 sequence
As to the kind of experiment: two-hybrid; DEP1 or dep1-1 in pGBKT7, OsMADS1 in pGADT7, yeast strain AH109, β-galactosidase assays; dep1-1 also used as bait to screen a cDNA library of young panicles.

The target of test [2] is T3, nLUC-tagged RGA1, rice Gα subunit (rice) (UniProt Q0DJ33).
T3 sequence: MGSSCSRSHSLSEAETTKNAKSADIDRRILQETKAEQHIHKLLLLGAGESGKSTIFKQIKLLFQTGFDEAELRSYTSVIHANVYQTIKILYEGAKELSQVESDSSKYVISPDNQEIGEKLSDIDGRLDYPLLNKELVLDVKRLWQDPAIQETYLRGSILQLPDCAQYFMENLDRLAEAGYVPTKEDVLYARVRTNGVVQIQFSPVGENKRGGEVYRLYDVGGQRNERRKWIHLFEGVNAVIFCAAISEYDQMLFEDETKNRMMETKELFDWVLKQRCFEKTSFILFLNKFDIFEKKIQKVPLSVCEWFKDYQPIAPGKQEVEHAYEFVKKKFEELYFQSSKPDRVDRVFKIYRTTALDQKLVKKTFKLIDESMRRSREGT
As to the kind of experiment: split reporter; split firefly luciferase complementation (SFLC): nLUC and cLUC fusions with the p19 silencing plasmid co-transfected into N. benthamiana leaves by Agrobacterium infiltration; leaves detached after 36-48 h, sprayed with 1 mM luciferin, LUC signal by cooled CCD.

Test [3] has as its target T4, nLUC-tagged RGB1, rice Gβ subunit (rice) (UniProt Q40687).
T4 sequence: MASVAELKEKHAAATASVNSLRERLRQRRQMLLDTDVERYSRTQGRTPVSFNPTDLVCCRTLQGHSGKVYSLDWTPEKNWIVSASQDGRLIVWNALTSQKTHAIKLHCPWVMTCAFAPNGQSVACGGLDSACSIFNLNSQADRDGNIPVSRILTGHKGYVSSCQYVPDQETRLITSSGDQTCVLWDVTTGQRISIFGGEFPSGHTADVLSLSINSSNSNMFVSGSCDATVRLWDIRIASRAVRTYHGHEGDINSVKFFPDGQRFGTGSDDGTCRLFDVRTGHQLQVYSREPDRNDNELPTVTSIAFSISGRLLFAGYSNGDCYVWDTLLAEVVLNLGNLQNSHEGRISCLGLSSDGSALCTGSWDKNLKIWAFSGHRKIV
The test is described as above.

Test [4] addresses T5, nLUC-tagged RGG2, rice canonical Gγ subunit (rice) (UniProt Q6YXX9).
T5 sequence: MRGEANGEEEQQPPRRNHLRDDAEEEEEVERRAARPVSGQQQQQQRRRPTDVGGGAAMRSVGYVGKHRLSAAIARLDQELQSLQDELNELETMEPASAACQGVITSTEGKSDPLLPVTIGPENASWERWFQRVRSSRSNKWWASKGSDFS
The test is described as above.

For the next test, the target named is T6, nLUC-tagged DEP1 (rice) (UniProt Q67UU9).
T6 sequence: T1 sequence
The test is described as above.

Test [5] addresses T7, nLUC-tagged RGG1, rice canonical Gγ subunit (rice) (UniProt Q75WU1).
T7 sequence: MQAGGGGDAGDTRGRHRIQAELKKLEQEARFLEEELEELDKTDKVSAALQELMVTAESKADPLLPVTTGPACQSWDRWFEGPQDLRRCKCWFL
The test is described as above.

Another test addresses T8, cLUC-DEP1 (rice) (UniProt Q67UU9).
T8 sequence: T1 sequence
The description is as above.

The target in test [6] is T9, rice DELLA protein SLR1 (positive control of the SFLC assay) (rice) (UniProt Q7G7J6).
T9 sequence: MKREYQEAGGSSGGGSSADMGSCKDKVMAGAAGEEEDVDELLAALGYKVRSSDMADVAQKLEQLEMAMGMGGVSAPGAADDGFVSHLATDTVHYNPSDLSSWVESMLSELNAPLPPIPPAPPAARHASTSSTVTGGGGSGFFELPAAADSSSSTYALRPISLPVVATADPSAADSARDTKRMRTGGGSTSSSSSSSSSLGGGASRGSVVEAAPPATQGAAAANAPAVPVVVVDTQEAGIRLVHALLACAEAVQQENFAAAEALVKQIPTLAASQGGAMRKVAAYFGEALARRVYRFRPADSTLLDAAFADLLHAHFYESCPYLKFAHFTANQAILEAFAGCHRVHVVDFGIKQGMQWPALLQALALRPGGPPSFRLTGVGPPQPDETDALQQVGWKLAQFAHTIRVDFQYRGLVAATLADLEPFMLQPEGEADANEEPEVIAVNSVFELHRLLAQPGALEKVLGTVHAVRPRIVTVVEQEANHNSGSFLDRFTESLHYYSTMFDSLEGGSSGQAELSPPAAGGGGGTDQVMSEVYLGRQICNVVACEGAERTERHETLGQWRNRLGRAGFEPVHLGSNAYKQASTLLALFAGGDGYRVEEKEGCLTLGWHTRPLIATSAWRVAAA
The test is described as above.

These are yes or no findings as the source states them, for the method shown. For part of these data: In cells and extracts the contact can be indirect. Some binding calls cover weakened binding; strength is not graded here. For part of these data: Tags and fused reporters may be left off the sequences shown.

In the case of HA-OsMADS1 (from UniProt Q10PZ9 1-257), in the test with Flag-DEP1 (rice), the binding result is listed as “binds”.
For the molecule “OsMADS1 (LGY3), MADS-domain transcription factor, in pGADT7 (from UniProt Q10PZ9 1-257)”, in [1], the binding result is given as “binds”.
As for “cLUC-targeted OsMADS1 (from UniProt Q10PZ9 1-257)”, the binding result in test [2] is “no binding”; in [3], “binds”; in test [4] it was “binds”; with nLUC-tagged DEP1 (rice) it was “binds”; in test [5] it was “binds”.
“nLUC-tagged OsMADS1 (non-deleted version) (from UniProt Q10PZ9 1-257)”: the binding entry with cLUC-DEP1 (rice) is recorded as “binds”.

B1: rice GA receptor GID1 (positive control of the SFLC assay) (receptor, UniProt Q6L545 1-354)
chain: MAGSDEVNRNECKTVVPLHTWVLISNFKLSYNILRRADGTFERDLGEYLDRRVPANARPLEGVSSFDHIIDQSVGLEVRIYRAAAEGDAEEGAAAVTRPILEFLTDAPAAEPFPVIIFFHGGSFVHSSASSTIYDSLCRRFVKLSKGVVVSVNYRRAPEHRYPCAYDDGWTALKWVMSQPFMRSGGDAQARVFLSGDSSGGNIAHHVAVRAADEGVKVCGNILLNAMFGGTERTESERRLDGKYFVTLQDRDWYWKAYLPEDADRDHPACNPFGPNGRRLGGLPFAKSLIIVSGLDLTCDRQLAYADALREDGHHVKVVQCENATVGFYLLPNTVHYHEVMEEISDFLNANLYY
For the molecule B1, the binding result in [6] is “binds”.
